Assay results: the supplement of paper PMC10986608
Some of the results follow. Many values rest on one well or one pass, so single values are uncertain.

Test system: Candida albicans DPL-15
Test: growth (OD600) after compound treatment (apparently relative to screen median) (relative growth (fraction; screen median 1.02)); DPL-15 is a caspofungin-resistant clinical isolate; higher = more fungal growth (less antifungal activity)
Settings: 25 µM; RPMI 1640; 48 h; 30 °C

Question: `C=C(C)[C@@H]1[C@H](c2cc(OC)c(O)c3oc4c(C)cccc4c(=O)c23)C=C(C)C[C@H]1c1cc(OC)c(O)c2oc3c(C)cccc3c(=O)c12` was tested. Which growth did it give?
Answer: 1.01

Question: Which growth does the source give for `COc1ccc(N2C(=O)c3c(c(C)nn3C)C2c2ccc(Br)cc2)cc1` (stereo unspecified) here?
Answer: 0.908

Question: Which growth does the source give for `COc1ccc([C@]23Oc4cc(OC)cc(OC)c4[C@@]2(O)c2nc(-c4ccc(C)cc4)[nH]c(=O)c2[C@@H]3c2ccccc2)cc1` here?
Answer: 0.959

Question: How did the growth turn out when `CC(C)(O)Cn1nc2cc1COC[C@H](c1ccccc1)NC(=O)CC1(CCCCC1)CNC(=O)c1cccc-2c1` was run?
Answer: 1.09

Question: Which growth does the source give for `COC(=O)C1=C(C)N(Cc2cccc(C(F)(F)F)c2)C(NCc2ccc3c(c2)OCO3)=NC1c1ccc(Cl)cc1` (stereo unspecified) here?
Answer: 0.986

Question: For `Cc1cc(C)cc(-n2nc(CC(C)C)c3c2C(=O)NC3c2cccc(C(F)(F)F)c2)c1` (stereo unspecified), which growth is on record?
Answer: 0.925

Question: For `CC(C)(C)[Si](C)(C)O[C@H]1C=C2COS(=O)O[C@H]2[C@H]2O[C@H]21` (stereo partly specified), which growth is on record?
Answer: 0.922

Question: `COc1ccc(C(=O)Cl)cc1I` was tested. Which growth did it give?
Answer: 0.955

Question: With `COc1ccc(CCn2ccc(Nc3cc(C(=O)N4Cc5ccccc5C4)c(O)cc3O)n2)cc1` as the compound, how does the growth read?
Answer: 0.94

Question: `Cc1ccc(C2NC(=O)c3nn(-c4ccc(OC(F)(F)F)cc4)c(-c4ccccc4)c32)cc1` (stereo unspecified) was tested. Which growth did it give?
Answer: 1.02

Question: With `COC[C@H]1O[C@H](c2ccccc2)C=C[C@@H]1OCC#Cc1cc([N+](=O)[O-])ccc1N` as the compound, how does the growth read?
Answer: 0.888

Question: With `O=c1c(O)c(-c2ccc(O)cc2O)oc2cc(O)cc(O)c12` as the compound, how does the growth read?
Answer: 0.954

Question: For `C#CCN(CCOC)C(=O)c1nnc2c3cc(C)ccc3n(S(=O)(=O)c3ccc(OC)cc3)c2n1`, which growth is on record?
Answer: 1.08

Question: With `COc1ccc(OC)c2c(=O)n(C)c(C)cc12` as the compound, how does the growth read?
Answer: 1.15

Question: With `CCCCC1=CC2=C(OC(C)=O)C(=O)C(C)(OC(=O)CC)C(=O)C2=CO1` (stereo unspecified) as the compound, how does the growth read?
Answer: 0.933

Question: For `CC(C)Cc1n[nH]c2c1C(c1ccc(F)cc1)N(c1ccc3c(c1)OCO3)C2=O` (stereo unspecified), which growth is on record?
Answer: 0.924

Question: For `COc1ccc([C@@]23Oc4cc(OC)cc(OC)c4[C@]2(O)c2nc(-c4cccc(OC)c4)[nH]c(=O)c2[C@H]3c2ccccc2)cc1`, which growth is on record?
Answer: 0.966

Question: Which growth does the source give for `CCOc1ccc(C2NC(=O)N3CCC=CC3=C2C(C)=O)c(F)c1F` (stereo unspecified) here?
Answer: 0.864

Question: For `CCC[C@]12Cc3cc(OC)c(OC)cc3[C@H](O1)c1c(c3ccccc3n(C)c1=O)O2`, which growth is on record?
Answer: 0.912

Question: With `CO/C(=C\c1cc2c(C(=O)OC(C)(C)C)c(O)cc(OC)c2o1)CC(C)=O` as the compound, how does the growth read?
Answer: 1.09

Question: Which growth does the source give for `CC(=O)C1=C2NCCN2C(=O)CC1c1cccc(F)c1` (stereo unspecified) here?
Answer: 1.17

Question: For `CC(C)CC1=NCCNC2=C1C(c1ccccc1)NC2=O` (stereo unspecified), which growth is on record?
Answer: 1.02

Question: With `COC(=O)[C@@H]1[C@@H](c2ccccc2)[C@]2(c3ccc(OC)cc3)Oc3cc(OC)cc(OC)c3[C@@]23NC(C2CCN(C(=O)OC(C)(C)C)CC2)=N[C@@]13O` as the compound, how does the growth read?
Answer: 0.769

Question: How did the growth turn out when `COC(CC[C@]1(C)[C@H]2CC[C@@H]3[C@H]4[C@H](C(C)C)CC[C@]4(COC(C)=O)CC[C@@]3(C)[C@]2(C)CC[C@H]1C(C)=O)OC` was run?
Answer: 1.06

Question: `CC(C)c1c2c(nn1C)C(=O)N(c1ccccc1)C2c1ccccc1` (stereo unspecified) was tested. Which growth did it give?
Answer: 0.915

Question: For `C=CCC1CC2=C(OC)C(CC=C)(CC=C)C(=O)C(C(=O)c3ccccc3)=C2OC1(C)C` (stereo unspecified), which growth is on record?
Answer: 1.06

Question: For `COC(=O)C1=C(C)N(Cc2ccccc2)C(=S)NC1c1ccc(Cl)cc1` (stereo unspecified), which growth is on record?
Answer: 0.87

Question: `Cn1nccc1Nc1cc(O)cc(O)c1C(=O)N1CC2CC2C1` (stereo unspecified) was tested. Which growth did it give?
Answer: 1.06

Question: Which growth does the source give for `COc1ccc(C2NC(=O)N3CCC=CC3=C2C(C)=O)cc1` (stereo unspecified) here?
Answer: 1

Question: `CC(=O)C1=C2C=CCCN2C(=O)NC1c1cccc(F)c1C` (stereo unspecified) was tested. Which growth did it give?
Answer: 0.919

Question: How did the growth turn out when `C#CCCN1N=C(SC)[C@@H]2N(Cc3ccccc3)c3ccccc3[C@@]23CC(=O)N=C13` was run?
Answer: 0.961

Question: `COc1ccc2c(c1)[C@@H](NCC=C(C)C)[C@H](C)[C@H]2c1ccccc1` was tested. Which growth did it give?
Answer: 1.08

Question: For `COC(=O)C1=C(C)N(C)C(NCc2ccc(C(F)(F)F)cc2)=NC1c1cccc(Cl)c1` (stereo unspecified), which growth is on record?
Answer: 1.08

Question: `CCCCN[C@@]12C(=O)[C@H](C(=O)OC)[C@@H](c3ccccc3)[C@]1(c1ccc(OC)cc1)Oc1cc(OC)cc(OC)c12` was tested. Which growth did it give?
Answer: 0.937

Question: How did the growth turn out when `O=P1(O)Oc2c(-c3ccccc3)cc3ccccc3c2-c2c(c(-c3ccccc3)cc3ccccc23)O1` was run?
Answer: 1.31

Question: With `Cc1ccc(C2C3=C(NC(C)(C)CN=C3CC(C)C)C(=O)N2c2ccccc2)cc1` (stereo unspecified) as the compound, how does the growth read?
Answer: 1.02

Question: `CC1(C)CNC(=O)CC(O)CNC(=O)c2cccc(c2)-c2cc(n[nH]2)C1` (stereo unspecified) was tested. Which growth did it give?
Answer: 1.05

Question: `COc1cccc(C2NC(=S)N(C)C(C)=C2C(C)=O)c1` (stereo unspecified) was tested. Which growth did it give?
Answer: 1.03

Question: `Cn1c(-c2ccc(N3CCOCC3)cc2)c(O)c(=O)c2ccccc21` was tested. Which growth did it give?
Answer: 1.08

Question: Which growth does the source give for `COc1ccc(N2C(=O)c3[nH]nc(CC(C)C)c3C2c2c(Cl)cccc2Cl)cc1F` (stereo unspecified) here?
Answer: 0.904

Question: With `COC(=O)c1cc2c(c3c4cc(F)ccc4n(S(=O)(=O)c4ccccc4)c13)C(=O)N(Cc1cccc(F)c1)C2` as the compound, how does the growth read?
Answer: 1.11

Question: How did the growth turn out when `COC(=O)CC#C[C@@H](C)[C@H](NS(=O)(=O)c1ccc(C)cc1)C(C)(C)C` was run?
Answer: 1.16

Question: How did the growth turn out when `CCOC(=O)N1c2ccc(OC)cc2C=CC1/C=C/c1cccc(F)c1` (stereo unspecified) was run?
Answer: 1.04

Question: `C=CCCC(=O)NCc1ccc(O)c(OC)c1` was tested. Which growth did it give?
Answer: 1.06

Question: `Cn1nc(C2CCCCC2)cc1Nc1cc(O)cc(O)c1C(=O)N1Cc2ccccc2C1` was tested. Which growth did it give?
Answer: 0.971

Question: Which growth does the source give for `COc1ccc(N2C(=O)c3[nH]nc(CC(C)C)c3C2c2cccc(OC)c2)cc1` (stereo unspecified) here?
Answer: 1.26

Question: How did the growth turn out when `O=C(/C=C/c1cccnc1)c1ccccc1O` was run?
Answer: 1

Question: With `O=C1c2[nH]nc(-c3ccccc3)c2C(c2ccccc2)N1c1ccccc1` (stereo unspecified) as the compound, how does the growth read?
Answer: 1.02

Question: `COC(=O)C1=C(C)N(Cc2ccccc2Cl)C(=S)NC1c1cccc(Cl)c1` (stereo unspecified) was tested. Which growth did it give?
Answer: 0.72

Question: How did the growth turn out when `COc1ccc2c(=O)c3c(F)cccc3oc2c1OCC=C(C)C` was run?
Answer: 1.15

Question: For `C=CCN1C(=O)C2=C(C(c3ccccc3)=NCCN2C)C1c1cccc(C(F)(F)F)c1` (stereo unspecified), which growth is on record?
Answer: 0.995
